In the supplement of paper PMC4967469:
Lines with a small IC50 respond at low doses; a fit beyond the top or the lowest dose is shown as a bound at that dose. AUC sums up the same curve from the lowest dose to the 256-fold higher top dose; it is 1 without any effect and falls as sensitivity rises. For some of these results: Where the top dose is marked as inferred, it is not printed in the source and was worked back from the curve model. For some of these results: An entry number marks a drug with two screens in the source, which often give different values.

Key:
Assay in all cases: Viability of human cancer cell lines after 72 h of drug (GDSC screen)
PI-103 = compound: Oc1cccc(-c2nc(N3CCOCC3)c3oc4ncccc4c3n2)c1 [PI-103]; details: top dose 10.24 µM
Description: (§1)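 Human cancer cell lines in 384-well plates, medium with 10% serum, drug for 72 h over a 256-fold dose range (nine 2-fold or five 4-fold steps up to the top dose). Adherent lines were fixed and stained with the nucleic acid dye Syto60, suspension lines read with resazurin; signal relative to control wells, capped at 0 and 100%. One two-parameter sigmoid per drug and line, fitted in a mixed model over all curves with the slope shared within a line.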

GSK690693 = compound: CCn1c(-c2nonc2N)nc2c(C#CC(C)(C)O)ncc(OC[C@H]3CCCNC3)c21 [GSK690693]; details: top dose 10.24 µM; top dose inferred
Description: as §1

UNC0638 = compound: COc1cc2c(NC3CCN(C(C)C)CC3)nc(C3CCCCC3)nc2cc1OCCCN1CCCC1 [UNC0638]
Description: as §1

WH-4-023 = compound: COc1ccc(N(C(=O)Oc2c(C)cccc2C)c2ccnc(Nc3ccc(N4CCN(C)CC4)cc3)n2)c(OC)c1 [WH-4-023]; details: top dose 5.12 µM; top dose inferred
Description: as §1

Tretinoin = compound: CC1=C(/C=C/C(C)=C/C=C/C(C)=C/C(=O)O)C(C)(C)CCC1 [Tretinoin]; details: top dose 10 µM; top dose inferred
Description: as §1

SB-505124 = compound: Cc1cccc(-c2[nH]c(C(C)(C)C)nc2-c2ccc3c(c2)OCO3)n1 [SB-505124]; details: top dose 10 µM; top dose inferred
Description: as §1

BX-795 = compound: O=C(NCCCNc1nc(Nc2cccc(NC(=O)N3CCCC3)c2)ncc1I)c1cccs1 [BX-795]; details: top dose 5 µM; top dose inferred
Description: as §1

[1] = top dose 20 µM, screen: GDSC drug entry 1236, top dose inferred
[2] = top dose 40 µM, screen: GDSC drug entry 245

Cell Line	AUC (PI-103)	IC50 (PI-103)	AUC (GSK690693)	IC50 (GSK690693)	AUC (UNC0638; [1])	IC50 (UNC0638; [1])	AUC (UNC0638; [2])	IC50 (UNC0638; [2])	AUC (WH-4-023)	IC50 (WH-4-023)	AUC (Tretinoin)	IC50 (Tretinoin)	AUC (SB-505124)	IC50 (SB-505124)	AUC (BX-795)	IC50 (BX-795)
LB2518-MEL (melanoma, adherent)	0.987	> 10.2 µM	0.987	> 10.2 µM	0.985	> 20 µM	0.861	37 µM	0.235	0.0519 µM	0.909	> 10 µM	0.983	> 10 µM	0.985	> 5 µM
LC4-1 (lymphoblastic leukaemia, suspension)	0.203	0.0757 µM	0.759	3.93 µM	0.808	11.7 µM	0.524	2.93 µM	0.949	> 5.12 µM	0.981	> 10 µM	0.981	> 10 µM	0.923	> 5 µM
LOUCY (T-cell lymphoblastic leukaemia, suspension)	0.4	0.359 µM	0.162	0.0792 µM	0.75	5.52 µM	0.756	11.4 µM	0.991	> 5.12 µM	0.73	2.42 µM	0.991	> 10 µM	0.793	1.83 µM
LP-1 (myeloma, suspension)	0.226	0.123 µM	0.967	> 10.2 µM	0.971	> 20 µM	0.682	7.29 µM	0.993	> 5.12 µM	0.99	> 10 µM	0.989	> 10 µM	0.974	> 5 µM
LS-411N (large intestine, adherent)	0.486	0.582 µM	0.749	3.95 µM	0.794	11.5 µM	0.581	4.37 µM	0.908	> 5.12 µM	0.963	> 10 µM	0.978	> 10 µM	0.917	> 5 µM
LS-513 (large intestine, adherent)	0.726	2.89 µM	0.912	> 10.2 µM	0.831	13.3 µM	0.779	17 µM	0.987	> 5.12 µM	0.987	> 10 µM	0.986	> 10 µM	0.936	> 5 µM
LS-1034 (large intestine, adherent)	0.7	2.49 µM	0.952	> 10.2 µM	0.907	> 20 µM	0.662	7.43 µM	0.96	> 5.12 µM	0.983	> 10 µM	0.982	> 10 µM	0.975	> 5 µM
LU-134-A (small cell lung carcinoma, suspension)	0.633	1.53 µM	0.768	4.08 µM	0.812	11.5 µM	0.68	8.27 µM	0.984	> 5.12 µM	0.987	> 10 µM	0.981	> 10 µM	0.832	3.48 µM
LU-165 (small cell lung carcinoma, suspension)	0.758	3.96 µM	0.855	9.77 µM	0.816	12.9 µM	0.795	21.2 µM	0.967	> 5.12 µM	0.979	> 10 µM	0.986	> 10 µM	0.988	> 5 µM
LXF-289 (lung adenocarcinoma, adherent)	0.925	> 10.2 µM	0.984	> 10.2 µM	0.772	7.59 µM	0.76	13.8 µM	0.664	0.905 µM	0.914	> 10 µM	0.925	> 10 µM	0.692	1.07 µM
MC116 (B-cell lymphoma, suspension)	0.21	0.128 µM	0.956	9.08 µM	0.879	10.4 µM	0.812	14.2 µM	0.879	2.67 µM	0.999	> 10 µM	0.992	> 10 µM	0.96	4.59 µM
MC-CAR (haematopoietic neoplasm, suspension)	0.2	0.094 µM	0.775	3.62 µM	0.815	9.54 µM	0.609	4.8 µM	0.952	> 5.12 µM	0.98	> 10 µM	0.98	> 10 µM	0.83	2.69 µM
MDST8 (large intestine, adherent)	0.708	2.46 µM	0.962	> 10.2 µM	0.779	8.08 µM	0.711	9.82 µM	0.986	> 5.12 µM	0.96	> 10 µM	0.986	> 10 µM	0.876	4.9 µM
ME-1 (acute myeloid leukaemia, suspension)	0.794	5.08 µM	0.965	> 10.2 µM	0.988	> 20 µM	0.732	12.1 µM	0.989	> 5.12 µM	0.947	> 10 µM	0.985	> 10 µM	0.987	> 5 µM
MEG-01 (chronic myeloid leukaemia, suspension)	0.538	0.806 µM	0.962	> 10.2 µM	0.681	3.88 µM	0.607	4.81 µM	0.03	< 0.02 µM	0.905	> 10 µM	0.985	> 10 µM	0.847	3.36 µM
MFH-ino (soft tissue, adherent)	0.784	5.18 µM	0.98	> 10.2 µM	0.933	> 20 µM	0.906	> 40 µM	0.386	0.147 µM	0.98	> 10 µM	0.971	> 10 µM	0.883	> 5 µM
